Results taken from PubChem BioAssay AID1345082 (National Center for Advancing Translational Sciences (NCATS), 2018).
Where “and” joins values, the source holds several entries; their conditions need not be identical. Equal values may be shown once. Screen size: about 94,000 compounds; about 4,000 (4.3%) were called active. This list was built around the results that the source calls inconclusive (neither active nor inactive); the mix of calls is not that of the screen. Calls follow the shape of the dose curve; as a rule, active = well fitted inhibition curve with a large enough effect; inconclusive = small, poorly fitted or top-dose-only effect; inactive = no such curve, though single readings can be large or run the other way. Potencies of inconclusive entries are doubtful fits and often do not repeat.

Experiment: Cytotoxic Profiling in NIH 3T3 Cell Line of Diverse Libraries Using Quantitative High-Throughput Screening; also: nearly all actives have a fitted effect of over 55% in size
Conditions: NIH 3T3 viability, CellTiter-Glo ATP luminescence, 48-72 h; activity change, negative = cytotoxicity: at 96.7 µM (top of the series) unless noted; series mostly up to 96.7 µM
How it was run: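 Viability of NIH 3T3 cells after 48 or 72 hr compound treatment at 37 °C was assessed by CellTiter-Glo, with luminescence imaged following a 10 min room-temperature step.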
% is scaled to controls: 0 for no effect and ±100 for the full control effect; potency is read from the fitted curve at half-maximal effect; tags tell the direction and shape of the fitted curve.

SMILES	activity change, negative = cytotoxicity	Potency	outcome
COc1ccc(C(=O)N2CC[C@@H]3COCCN(C)[C@@H]3C2)c(OC)c1	inactive: 1.23%	–	–
CCC(C)NC(=O)C1CCCN(Cc2cccc(-c3ccsc3)c2)C1 (configuration not stated)	–	inconclusive: 50.1 µM [inhibitor, partial curve, poor fit]	–
CCS(=O)(=O)N(C1CC1)C1CCOC2(CCN(C(=O)c3ccccc3)CC2)C1 (configuration not stated)	inactive: -25.6%	–	–
COc1ccc(NC(=O)C2=NO[C@@H]3CN(Cc4ccc(F)cc4)C[C@H]23)cc1	–	inconclusive: 25.1 µM [inhibitor, full curve, poor fit]	–
Cc1cccc(-c2nocc2CCC(=O)NC(C)c2ccc(F)cc2)c1 (configuration not stated)	–	inconclusive: 56.2 µM [inhibitor, partial curve, poor fit]	–
CCc1cc(=O)n(CC(=O)N2CCN(c3ccccc3F)CC2)c(N2CCOCC2)n1	–	inconclusive: 39.8 µM [inhibitor, partial curve, poor fit]	–
COc1ccc(CN2CCc3nc(C(C)C)nc(-c4ccc(O)cc4)c3CC2)cc1	–	inconclusive: 70.8 µM [inhibitor, single point]	–
CC(C)(C)C(=O)N1CCC2(C1)C(=O)N(CCc1ccccc1)c1ccccc12 (configuration not stated)	–	inconclusive: 50.1 µM [inhibitor, partial curve, poor fit] and inconclusive: 70.8 µM [inhibitor, partial curve, poor fit]	–
CCOC(=O)C1CCN(C(=O)Cc2ccc(N(Cc3ccccc3)C(=O)c3ccco3)cc2)CC1	–	inconclusive: 50.1 µM [inhibitor, partial curve, poor fit]	–
NCc1cccc(-c2cccc(Cl)c2)c1	–	active: 89.1 µM	–
O=C(c1ccccc1)N1CCC(C(=O)N2CCC(Cc3nc(-c4ccc(F)cc4)no3)CC2)CC1	–	inconclusive: 12.6 µM [inhibitor, partial curve, poor fit]	–
COCc1ccc2c(c1)c(OC(C)(C)C(=O)NCCCn1ccnc1)nn2Cc1cccnc1	–	inconclusive: 50.1 µM [inhibitor, partial curve, poor fit]	–
CC(C)CCNC(=O)c1cnc2n1CCN(Cc1ccncc1Cl)CC2	–	inconclusive: 56.2 µM [inhibitor, partial curve]	–
CC(=O)N1CCCN(Cc2nnc(C(=O)N3CCC[C@@H]3c3cccc(F)c3)n2-c2ccccc2)CC1	–	inconclusive: 11.2 µM [inhibitor, full curve, poor fit]	–
Cc1ncsc1C1N(C2CCN(C(=O)c3ccco3)CC2)C(=O)C12CCCC2 (configuration not stated)	inactive: -15.4%	–	–
Cc1ccc(CN2C[C@@H](CO)[C@H](c3nc(C)no3)C2)cc1	inactive: -5.12%	–	–
OC1CC(c2cc(N3CCN(c4nsc5ccccc45)CC3)ncn2)C1 (configuration not stated)	–	active: 17.8 µM	–
OC1(CNC2CCN(Cc3cc(F)cc(F)c3)CC2)CNCCOC1 (configuration not stated)	inactive: -3.16%	–	–
CC(C)CN(C1CCN(C)CC1)C1CN(C(=O)c2n[nH]c3ccccc23)C1	inactive: -10.1%	–	–
O=C(c1ccoc1)N1CCCN(CCc2ccccc2)c2ccccc21	–	inconclusive: 50.1 µM [inhibitor, partial curve, poor fit]	–
CC(=O)c1ccc(NC(=O)O[C@@H]2CO[C@H]3[C@@H]2OC[C@@H]3NC(=O)COc2ccccc2)cc1	–	inconclusive: 100 µM [inhibitor, partial curve, poor fit]	–

SMILES	activity change, negative = cytotoxicity	Potency	outcome
COc1ccccc1-c1cccc(C(=O)N2CCN(C(C)=O)CC2)c1	inactive: -27.5% [at 138 µM]	–	–
Cn1ncc2c(C(=O)CCc3ccc(F)cc3)cc(-c3ccc(Cl)cc3Cl)nc21	–	active: 31.6 µM	–
CCOC(=O)[C@@H]1CN(C(=O)CC(C)(C)C)[C@H]2c3cccc(C)c3O[C@@H]12	–	inconclusive: 50.1 µM [inhibitor, partial curve, poor fit]	–
O=C(NCc1cccs1)C1CCN(c2ccnc3ccnn23)CC1	–	inconclusive: 22.4 µM [inhibitor, full curve]	–
COc1cccc(Nc2ncc3c(n2)C(C)(C(=O)NCCc2ccccn2)CC3)c1 (configuration not stated)	–	inconclusive: 89.1 µM [inhibitor, partial curve]	–
O[C@H]1[C@H](NCC2CC2)[C@H]2CO[C@H](O2)[C@@H]1N1CCCCC1	inactive: -4.32% [at 230 µM]	–	–
COc1cccc(C(=O)N2CCC3(CC2)CC(N(Cc2ccccc2)C2CC2)CCO3)c1 (configuration not stated)	–	inconclusive: 44.7 µM [inhibitor, partial curve, poor fit]	–
CCN(CC)C(=O)CCc1c(C)nn(-c2ccc(F)cc2)c1Oc1cccc(F)c1	–	inconclusive: 50.1 µM [inhibitor, partial curve, poor fit]	–
COCCNC(=O)c1coc(COc2ccc3c(c2)C(c2cccc(F)c2)N(C(=O)C2CC2)CC3)n1 (configuration not stated)	–	inconclusive: 44.7 µM [inhibitor, partial curve, poor fit]	–
O=C1CCC2(CCN(Cc3ccc4[nH]ccc4c3)CC2)CN1CCc1ccccc1	–	inconclusive: 79.4 µM [inhibitor, partial curve]	–
COc1ccc2c3c1C(CO)N(Cc1ccccc1)CC3=CC(C)(C)CO2 (configuration not stated)	–	inconclusive: 44.7 µM [inhibitor, partial curve, poor fit]	–
CN(C)[C@@H]1CN(Cc2ccc(F)c(F)c2)CC[C@@H]1CO	inactive: -8.37%	–	–
Cc1cccc2c(C3CCN(S(=O)(=O)c4cc(F)c(F)cc4Cl)CC3)c[nH]c12	–	active: 31.6 µM	–
COc1cccc(-c2ccccc2NC(=O)C2CCN(C/C(C)=C/c3ccccc3)CC2)c1	–	inconclusive: 22.4 µM [inhibitor, full curve, poor fit]	–
COc1cccc(CC(=O)N2CCC3(CC2)NC(=O)N(c2cccc(F)c2)N3)c1	–	inconclusive: 28.2 µM [inhibitor, partial curve]	–
CN(C)[C@@H]1CN(C(=O)c2ccncc2)CCC1(O)c1ccccc1 (some centres not stated)	–	–	inactive
Cc1ncsc1CN1CCCC(c2nc(CCOCC3CCCC3)no2)C1 (configuration not stated)	–	inconclusive: 50.1 µM [inhibitor, partial curve, poor fit]	–
Cc1cccc(C(=O)NC(C(=O)N2CCCC2)C2CCN(C(=O)c3cccs3)CC2)c1 (configuration not stated)	–	inconclusive: 70.8 µM [inhibitor, single point]	–
Cc1ccc(OCC(=O)N2CCC(CCOc3ccc(F)cc3)C2)cc1 (configuration not stated)	–	inconclusive: 50.1 µM [inhibitor, partial curve, poor fit]	–
O=C(Nc1ccc(F)cc1)c1cccn2cncc12	inactive: -26.5% [at 138 µM]	–	–
CCNC(=O)N[C@H]1CO[C@H]2[C@@H]1OC[C@@H]2Nc1nccc(-c2ccc(OC)cc2)n1	–	inconclusive: 31.6 µM [inhibitor, full curve]	–

SMILES	activity change, negative = cytotoxicity	Potency	outcome
COc1ccc(-c2cc(N3CCCC(NC(=O)c4ccc(C)c(F)c4)C3)n[nH]2)cc1 (configuration not stated)	–	inconclusive: 39.8 µM [inhibitor, partial curve, poor fit]	–
CN(C)C[C@@H]1CN(C2CCOCC2)C[C@H]1NC(=O)c1ccnn1C	inactive: -5.88%	–	–
CC(=O)NCC1CCCN(Cc2ccc(-c3ccccc3C#N)o2)C1 (configuration not stated)	inactive: -25.6%	–	–
CCOc1ccccc1CN1CCC(Cc2ccc(C(=O)N3CCOCC3)cc2)CC1	–	inconclusive: 35.5 µM [inhibitor, partial curve]	–
O=C1CCN(Cc2cccnc2)CCCC(c2nc(-c3cccnc3)no2)CCN1 (configuration not stated)	inactive: -3%	–	–
CC(C)CCN1CC[C@H](c2nc3ccccc3[nH]2)C1	inactive: -28.7% [at 230 µM]	–	–
Cn1nccc1-c1cnc2n[nH]c(-c3ccc4c(c3)OCO4)c2n1	–	inconclusive: 56.2 µM [inhibitor, partial curve, poor fit]	–
O=C(Cc1ccccc1)Nc1ccc([C@@H](O)[C@H]2COCC(=O)N2Cc2ccc(C(F)(F)F)cc2)cc1	–	active: 79.4 µM	–
O=C(c1ccnc(-c2nnc3ccc(N4CCOCC4)nn23)c1)N1CCCCC1	–	active: 20 µM	–
COc1cccc(CN2CCCCCCNC(=O)[C@@H]3C[C@@H](C(=O)NCCc4cnc[nH]4)C[C@@H]32)c1	–	–	inactive
CN1[C@@H](CCC(=O)N2CCC(O)CC2)CNC(=O)[C@@H]2[C@H]1CCN2Cc1ncc[nH]1	inactive: 3.03% [at 174 µM]	–	–
COc1cc(Cl)ccc1OCc1nnc(C(=O)N2CCC[C@@H]2c2nc3ccccc3[nH]2)n1-c1ccccc1	–	inconclusive: 56.2 µM [inhibitor, partial curve, poor fit]	–
COc1ccc(CNC(=O)c2noc(-c3ccc4c(c3)OCO4)n2)cc1	–	inconclusive: 50.1 µM [inhibitor, single point]	–
COc1ccc(C(=O)N2c3ccccc3CC2c2nc(C(C)C)no2)c(OC)c1 (configuration not stated)	–	inconclusive: 44.7 µM [inhibitor, partial curve, poor fit]	–
COc1cccc(CN2C[C@@H]3C(C(=O)Nc4cncc(OC)c4)=NO[C@@H]3C2)c1	–	inconclusive: 100 µM [inhibitor, partial curve, poor fit]	–
CC1=C[C@@H](CNC(=O)c2ccncc2)[C@H](C(C)C)C[C@H]1CC(=O)NCc1ccc(C#N)cc1	–	inconclusive: 50.1 µM [inhibitor, partial curve, poor fit]	–
CCCc1nnc(C[C@@H]2C[C@@H](C(C)C)[C@H](CNCc3cccnc3)C=C2C)o1	inactive: -23.9% [at 138 µM]	–	–
O=C(c1ccc(Cl)cc1)N1CCC(n2cc(-c3ccc(OC(F)(F)F)cc3)[nH]c2=O)CC1	–	inconclusive: 50.1 µM [inhibitor, partial curve, poor fit]	–
O=C(NC1CCN(c2cc(-c3cccs3)[nH]n2)C1)c1ccc(F)cc1Cl (configuration not stated)	–	inconclusive: 50.1 µM [inhibitor, partial curve, poor fit]	–
COc1cccc(-c2ccc(C(=O)N3CCC(C(=O)NCc4ccc5c(c4)OCO5)CC3)cc2)c1	–	inconclusive: 44.7 µM [inhibitor, partial curve, poor fit]	–
